Drawing on article PMC6212790, this text covers binding signal for 172 sequences.

The other results are listed elsewhere or left out. At the low end of the ranking, values are background and their order means little.

The target in the experiment is T1, GST-Rok (full length) (UniProt O34857).
T1 sequence: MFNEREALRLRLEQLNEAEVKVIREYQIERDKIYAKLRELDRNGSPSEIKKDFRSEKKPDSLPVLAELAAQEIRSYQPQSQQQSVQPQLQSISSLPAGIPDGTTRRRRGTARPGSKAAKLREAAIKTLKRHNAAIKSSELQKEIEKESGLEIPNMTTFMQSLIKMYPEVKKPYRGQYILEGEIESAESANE
The experiment in a line: protein binding microarray.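 Also: rank score from −0.5 (least bound) to 0.5 (best bound).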 The conditions noted are these: Rok is a gene silencer of Bacillus subtilis; high values mean tight binding; most listed sequences are background and not binding sites; double strand, one strand shown.
For the sequence GTGGTAGA, the binding signal came to 0.435 E-score.

For the sequence CCGGGTGC, the binding signal was -0.275 E-score.

The sequence AATTGCAC came in with a binding signal of 0.139 E-score.

In turn, CGACATAA displayed a binding signal of 0.121 E-score.

Sequence CAAAAGCG showed a binding signal of -0.0644 E-score.

ATAATGCC gave a binding signal of 0.117 E-score.

As to ACCGGTAA, the binding signal was 0.255 E-score.

As for TATGCAAA, the binding signal came out at 0.217 E-score.

As for CCGGGAAC, the binding signal is -0.39 E-score.

In turn, ATAAACCA displayed a binding signal of 0.119 E-score.

CTACACAG: the binding signal was determined as 0.0881 E-score.

The sequence AGGTCAAA had a binding signal of 0.141 E-score.

AGGGTTCA yielded a binding signal of -0.0816 E-score.

Take AATACTGT: the binding signal is 0.171 E-score.

For CTGACCAG, the binding signal was -0.127 E-score.

CATGAGCA displayed a binding signal of 0.13 E-score.

Regarding GATATTGA, the binding signal was found to be 0.251 E-score.

On to AAGCCCTG, for which the binding signal is -0.382 E-score.

Sequence CCTCACAC returned a binding signal of -0.0382 E-score.

GTGCCTGA displayed a binding signal of -0.0608 E-score.

Regarding ATACCAAT, the binding signal was 0.243 E-score.

As to ACCAACCG, the binding signal was -0.00471 E-score.

In turn, CCACGGTC displayed a binding signal of -0.0823 E-score.

In the case of GCGGACGC, the binding signal was -0.272 E-score.

Turning to AGGCACTC, the binding signal is -0.335 E-score.

In turn, ATTTTACG came in with a binding signal of 0.219 E-score.

Sequence GGTCCGGA showed a binding signal of -0.2 E-score.

CGCATGAC: the binding signal was -0.03 E-score.

Take TCGGCAAA: the binding signal was -0.151 E-score.

Take CTTTCGGC: the binding signal was -0.277 E-score.

Consider ATTAATTC, for which the binding signal was 0.248 E-score.

GTCTGTGA: the binding signal is -0.183 E-score.

Sequence AAGGGGGG displayed a binding signal of -0.446 E-score.

The sequence CACCTTGG showed a binding signal of -0.248 E-score.

CAATATTG yielded a binding signal of 0.161 E-score.

The sequence ATTGCGGA yielded a binding signal of 0.0951 E-score.

CAGATCAG registered a binding signal of -0.214 E-score.

Take AAGGTATA: the binding signal came to 0.152 E-score.

With AGTACGCG, the binding signal was -0.108 E-score.

In the case of ATGTCCAG, the binding signal was 0.025 E-score.

Consider CCCCGTAC, for which the binding signal is -0.167 E-score.

ATTGCTTG: the binding signal turned out to be 0.0689 E-score.

CGTGTGCA returned a binding signal of 0.115 E-score.

As to GGATGCAA, the binding signal was -0.1 E-score.

As to CCGCCACG, the binding signal is -0.291 E-score.

On to ACGTATCG, for which the binding signal was found to be 0.0464 E-score.

In the case of TAACTGCA, the binding signal came out at 0.255 E-score.

On to CCTGTAAG, for which the binding signal was -0.159 E-score.

Regarding CAGGTGCA, the binding signal was -0.198 E-score.

Sequence GAATTAAC showed a binding signal of 0.0101 E-score.

CTGTGGTA registered a binding signal of 0.0132 E-score.

Sequence CCCAGGCA had a binding signal of -0.18 E-score.

In the case of CGAAGGCA, the binding signal was -0.211 E-score.

CTTACCGC yielded a binding signal of 0.0909 E-score.

In the case of CCACCTGG, the binding signal was -0.205 E-score.

As to GTGCTGGA, the binding signal was -0.207 E-score.

As to CAATACGG, the binding signal is 0.0271 E-score.

Turning to AGTGCACA, the binding signal is 0.106 E-score.

CCATACAC registered a binding signal of 0.104 E-score.

Regarding CTTCTCTC, the binding signal came out at 0.0122 E-score.

Consider CAGAACTG, for which the binding signal is 0.0194 E-score.

Consider TGTAGAAA, for which the binding signal worked out at 0.396 E-score.

On to GCAGCCTA, for which the binding signal is -0.175 E-score.

ACTAGAAC: the binding signal was determined as 0.296 E-score.

Sequence CACGCGGG came in with a binding signal of -0.285 E-score.

Turning to ACCTTGTC, the binding signal was -0.226 E-score.

Consider ATCTAATG, for which the binding signal was found to be 0.241 E-score.

For CAGGCACG, the binding signal was -0.303 E-score.

GCAATGAA had a binding signal of -0.00172 E-score.

The sequence AATCCTCC registered a binding signal of -0.151 E-score.

AGAGGAAA: the binding signal was -0.149 E-score.

For CGGCCGGA, the binding signal is -0.228 E-score.

GCACGCTA registered a binding signal of 0.00273 E-score.

CAGGACCG: the binding signal was -0.306 E-score.

In turn, AAAACGCC had a binding signal of -0.318 E-score.

In turn, CACGACGA returned a binding signal of 0.114 E-score.

CTGCGCAC had a binding signal of -0.154 E-score.

Regarding AATGGGGC, the binding signal was -0.31 E-score.

AAGAAGAC: the binding signal was -0.162 E-score.

CAAACAGG came in with a binding signal of -0.0677 E-score.

GTATTACA registered a binding signal of 0.169 E-score.

Turning to CGCAATCA, the binding signal stood at 0.0654 E-score.

On to GTGTTTCA, for which the binding signal is -0.149 E-score.

Regarding AAGGAGTA, the binding signal was -0.163 E-score.

On to GCAATGCC, for which the binding signal was -0.158 E-score.

For the sequence TACAAATA, the binding signal amounted to 0.375 E-score.

Sequence AATCGCAA displayed a binding signal of 0.06 E-score.

In the case of AACTCCCG, the binding signal is -0.168 E-score.

On to TAAGCCAA, for which the binding signal came out at 0.0909 E-score.

For the sequence ACATATAT, the binding signal was 0.378 E-score.

For the sequence GCCGTCGC, the binding signal was -0.297 E-score.

AGGCGGAA registered a binding signal of -0.116 E-score.

The sequence CATGTACG showed a binding signal of 0.157 E-score.

Consider CGCACAAC, for which the binding signal was -0.0646 E-score.

In turn, GCCGTCCC displayed a binding signal of -0.415 E-score.

GACAATTA gave a binding signal of 0.127 E-score.

CGACACAC registered a binding signal of 0.0834 E-score.

For the sequence CTTTCAAA, the binding signal is -0.0687 E-score.

In turn, GCCCGTCA had a binding signal of -0.248 E-score.

In turn, CTGCCCAG showed a binding signal of -0.241 E-score.

Sequence GAACCGCC came in with a binding signal of -0.165 E-score.

As for GAAGTGCA, the binding signal came out at 0.107 E-score.

For the sequence GTTGGAGA, the binding signal was 0.0244 E-score.

CGGCACTC returned a binding signal of -0.275 E-score.

Regarding GCCGCTCC, the binding signal is -0.326 E-score.

Turning to AAAACAGC, the binding signal was -0.00257 E-score.

The sequence AGGGTACG came in with a binding signal of -0.168 E-score.

TAGGATAA registered a binding signal of 0.0932 E-score.

In turn, CGGGTTAC had a binding signal of -0.0819 E-score.

Sequence GGTGGAAA yielded a binding signal of -0.0827 E-score.

In turn, AAGAAGAT had a binding signal of -0.000369 E-score.

For CACGGAAA, the binding signal is -0.0897 E-score.

For AATCCATT, the binding signal is 0.054 E-score.

In turn, CATTCGTC had a binding signal of -0.0954 E-score.

Turning to AGACCAAG, the binding signal was -0.163 E-score.

Consider CTCTGGTA, for which the binding signal was 0.0688 E-score.

Sequence GTCACAAC came in with a binding signal of -0.0655 E-score.

As to CCTCCCTA, the binding signal is -0.272 E-score.

Consider AAGAGAGA, for which the binding signal is -0.129 E-score.

As for CCAAGTAC, the binding signal was determined as 0.0928 E-score.

Consider ATTACCCA, for which the binding signal came to 0.242 E-score.

As for AGCCGTGG, the binding signal was -0.223 E-score.

CGTCACAG had a binding signal of 0.031 E-score.

For CTTACACC, the binding signal is -0.0193 E-score.

In turn, AGATTACG returned a binding signal of 0.17 E-score.

The sequence GACTACGA returned a binding signal of 0.079 E-score.

In turn, GGGAATGA came in with a binding signal of -0.0881 E-score.

For ACAACGAT, the binding signal turned out to be 0.0956 E-score.

Turning to ACTCCCAA, the binding signal is -0.0633 E-score.

Sequence AGCTCGGC registered a binding signal of -0.0222 E-score.

Sequence AACATGTA had a binding signal of 0.285 E-score.

For the sequence AGTGACCG, the binding signal is -0.0525 E-score.

As for CGGCCCAC, the binding signal was -0.282 E-score.

With ATTACGGG, the binding signal was found to be 0.0739 E-score.

The sequence ACCCTTTG displayed a binding signal of -0.155 E-score.

Consider CCACCACA, for which the binding signal was determined as 0.0179 E-score.

As for TAGCTACA, the binding signal worked out at 0.37 E-score.

For the sequence AGTTGTAA, the binding signal was 0.249 E-score.

Consider GAATTCAA, for which the binding signal was found to be 0.122 E-score.

Regarding AACGCTCG, the binding signal is -0.212 E-score.

As to CGACCGGC, the binding signal was -0.221 E-score.

GGTTTCCA yielded a binding signal of -0.2 E-score.

As to CCCAAGAC, the binding signal is -0.297 E-score.

In turn, ATTCGGGG displayed a binding signal of -0.212 E-score.

Sequence CAATGGGG returned a binding signal of -0.242 E-score.

For CGGCCAGC, the binding signal was -0.377 E-score.

As to TACGATGA, the binding signal turned out to be 0.123 E-score.

CACCCTAG gave a binding signal of -0.105 E-score.

Turning to GGGCTCGA, the binding signal is -0.233 E-score.

AGTATGAA: the binding signal is 0.204 E-score.

The sequence AGACAACC registered a binding signal of -0.264 E-score.

The sequence CGAAAAGC gave a binding signal of 0.0853 E-score.

On to CATATAGA, for which the binding signal stood at 0.133 E-score.

The sequence AAGCTATT returned a binding signal of 0.142 E-score.

As for CGCCGATC, the binding signal was -0.248 E-score.

In turn, CGGCGCGA yielded a binding signal of -0.193 E-score.

CTTGTGGA gave a binding signal of -0.189 E-score.

AAGGGCGG displayed a binding signal of -0.307 E-score.

AGTAGATC registered a binding signal of 0.324 E-score.

CCCATAAC: the binding signal was determined as 0.0958 E-score.

Take CGACGTCC: the binding signal is -0.376 E-score.

Take GAATCGGC: the binding signal was 0.00616 E-score.

Take GAAGTGTC: the binding signal is -0.145 E-score.

In turn, ACGAATAG returned a binding signal of 0.0209 E-score.

For ATTGGATA, the binding signal came to 0.145 E-score.

In turn, AGACAGAC came in with a binding signal of -0.167 E-score.

Sequence AGCCATTA showed a binding signal of -0.205 E-score.

With ACAACGTC, the binding signal is -0.0449 E-score.

Sequence ATTAGTTG gave a binding signal of 0.334 E-score.

Take AGCACACG: the binding signal was found to be 0.0226 E-score.

The sequence AGAGGGAG yielded a binding signal of -0.319 E-score.

Sequence AGCCGTAC registered a binding signal of 0.15 E-score.
